In publication PMC10904810:
Results are given in words; binding and its absence hold for the method and conditions named. Binding seen in cells or lysates may run through a third protein. Some entries that bind do so weakly or less than the wild type.

Chains of the proteins cited; added tags and fusions are not shown.
UniProt Q00534: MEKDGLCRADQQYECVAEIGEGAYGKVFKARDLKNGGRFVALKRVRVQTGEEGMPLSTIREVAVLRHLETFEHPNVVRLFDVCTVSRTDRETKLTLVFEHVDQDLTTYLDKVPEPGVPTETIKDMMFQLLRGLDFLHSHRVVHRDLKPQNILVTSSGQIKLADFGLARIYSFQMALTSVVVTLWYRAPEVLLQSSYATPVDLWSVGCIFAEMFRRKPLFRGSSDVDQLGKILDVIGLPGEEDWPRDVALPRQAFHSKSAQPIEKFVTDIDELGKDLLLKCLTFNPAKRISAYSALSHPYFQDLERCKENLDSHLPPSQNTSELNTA
UniProt Q08999: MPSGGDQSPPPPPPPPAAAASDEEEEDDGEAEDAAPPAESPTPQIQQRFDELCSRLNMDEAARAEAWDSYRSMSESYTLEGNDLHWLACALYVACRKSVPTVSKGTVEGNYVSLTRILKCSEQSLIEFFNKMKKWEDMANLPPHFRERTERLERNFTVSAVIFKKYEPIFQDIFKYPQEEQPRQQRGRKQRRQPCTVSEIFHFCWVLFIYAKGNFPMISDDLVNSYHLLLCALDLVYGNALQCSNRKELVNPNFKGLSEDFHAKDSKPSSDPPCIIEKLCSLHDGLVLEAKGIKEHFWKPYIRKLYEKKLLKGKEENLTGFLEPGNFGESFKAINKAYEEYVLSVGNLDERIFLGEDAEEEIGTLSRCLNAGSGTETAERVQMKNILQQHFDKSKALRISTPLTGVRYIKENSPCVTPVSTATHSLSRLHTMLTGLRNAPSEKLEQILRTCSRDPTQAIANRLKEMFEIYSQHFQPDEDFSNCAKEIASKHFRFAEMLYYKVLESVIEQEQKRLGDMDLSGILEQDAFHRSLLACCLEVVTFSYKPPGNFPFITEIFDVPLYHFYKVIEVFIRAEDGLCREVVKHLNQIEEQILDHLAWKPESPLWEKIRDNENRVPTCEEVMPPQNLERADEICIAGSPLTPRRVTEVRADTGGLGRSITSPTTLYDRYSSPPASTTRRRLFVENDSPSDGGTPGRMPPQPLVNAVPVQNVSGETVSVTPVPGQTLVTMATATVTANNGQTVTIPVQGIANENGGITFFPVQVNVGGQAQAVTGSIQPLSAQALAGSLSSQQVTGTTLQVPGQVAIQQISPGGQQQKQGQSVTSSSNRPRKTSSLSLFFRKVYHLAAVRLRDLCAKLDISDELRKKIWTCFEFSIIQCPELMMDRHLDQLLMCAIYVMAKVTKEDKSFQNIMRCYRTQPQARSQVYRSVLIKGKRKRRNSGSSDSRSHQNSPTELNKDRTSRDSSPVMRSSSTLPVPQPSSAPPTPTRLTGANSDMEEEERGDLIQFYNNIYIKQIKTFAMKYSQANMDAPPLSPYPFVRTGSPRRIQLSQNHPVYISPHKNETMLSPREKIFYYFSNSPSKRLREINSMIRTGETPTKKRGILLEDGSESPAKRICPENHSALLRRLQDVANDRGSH

T1: endogenous E3 ubiquitin ligase KLHL42 (human (endogenous in T24)) (UniProt Q9P2K6)
T1 sequence: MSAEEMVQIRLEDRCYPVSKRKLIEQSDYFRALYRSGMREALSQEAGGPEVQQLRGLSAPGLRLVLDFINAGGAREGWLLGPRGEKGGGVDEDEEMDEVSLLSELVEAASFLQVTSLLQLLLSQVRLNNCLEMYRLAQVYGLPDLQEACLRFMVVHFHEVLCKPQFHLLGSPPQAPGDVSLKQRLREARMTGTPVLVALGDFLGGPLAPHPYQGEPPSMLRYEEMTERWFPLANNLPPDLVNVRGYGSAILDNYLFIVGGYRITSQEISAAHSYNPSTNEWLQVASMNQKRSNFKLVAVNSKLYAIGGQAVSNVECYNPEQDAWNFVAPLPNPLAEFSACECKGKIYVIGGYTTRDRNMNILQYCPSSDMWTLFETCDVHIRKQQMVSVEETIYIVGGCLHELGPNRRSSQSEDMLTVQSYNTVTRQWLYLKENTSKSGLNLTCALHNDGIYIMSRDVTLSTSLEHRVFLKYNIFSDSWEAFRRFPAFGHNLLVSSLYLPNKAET

T2: endogenous pRB1 (retinoblastoma protein RB1) (human (endogenous in T24)) (UniProt P06400)
T2 sequence: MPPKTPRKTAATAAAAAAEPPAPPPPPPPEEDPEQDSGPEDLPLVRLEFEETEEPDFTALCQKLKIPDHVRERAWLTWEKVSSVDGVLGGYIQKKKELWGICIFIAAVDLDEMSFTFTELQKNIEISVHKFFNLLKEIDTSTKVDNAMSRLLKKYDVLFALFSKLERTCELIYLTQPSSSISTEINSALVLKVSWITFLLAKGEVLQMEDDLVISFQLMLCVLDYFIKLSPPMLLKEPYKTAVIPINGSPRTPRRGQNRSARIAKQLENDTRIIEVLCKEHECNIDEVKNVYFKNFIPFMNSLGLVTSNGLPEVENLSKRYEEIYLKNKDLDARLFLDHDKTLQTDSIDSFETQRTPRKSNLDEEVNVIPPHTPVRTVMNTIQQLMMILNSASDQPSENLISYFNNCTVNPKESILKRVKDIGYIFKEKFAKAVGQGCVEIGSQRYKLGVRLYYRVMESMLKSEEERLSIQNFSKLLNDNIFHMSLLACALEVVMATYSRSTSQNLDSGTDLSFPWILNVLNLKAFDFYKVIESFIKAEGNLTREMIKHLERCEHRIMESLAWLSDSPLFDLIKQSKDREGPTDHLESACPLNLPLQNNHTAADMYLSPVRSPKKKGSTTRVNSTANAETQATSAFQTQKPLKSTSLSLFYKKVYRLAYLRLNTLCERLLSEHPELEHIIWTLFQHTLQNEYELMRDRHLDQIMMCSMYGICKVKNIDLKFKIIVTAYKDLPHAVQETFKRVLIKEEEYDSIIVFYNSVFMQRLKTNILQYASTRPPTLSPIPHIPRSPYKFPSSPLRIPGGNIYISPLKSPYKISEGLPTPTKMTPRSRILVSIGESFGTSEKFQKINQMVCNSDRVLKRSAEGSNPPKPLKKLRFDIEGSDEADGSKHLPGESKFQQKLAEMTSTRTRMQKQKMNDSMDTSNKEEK

B1: ectopically expressed KLHL42 (protein, UniProt Q9P2K6 1-505)
chain: T1 sequence
B2: endogenous E3 ubiquitin ligase KLHL42 (protein, UniProt Q9P2K6 1-505)
chain: T1 sequence
B3: endogenous pRB1 (retinoblastoma protein RB1) (protein, UniProt P06400 1-928)
chain: T2 sequence
B4: RBL1/p107 (protein, UniProt P28749 1-1068)
chain: MFEDKPHAEGAAVVAAAGEALQALCQELNLDEGSAAEALDDFTAIRGNYSLEGEVTHWLACSLYVACRKSIIPTVGKGIMEGNCVSLTRILRSAKLSLIQFFSKMKKWMDMSNLPQEFRERIERLERNFEVSTVIFKKYEPIFLDIFQNPYEEPPKLPRSRKQRRIPCSVKDLFNFCWTLFVYTKGNFRMIGDDLVNSYHLLLCCLDLIFANAIMCPNRQDLLNPSFKGLPSDFHTADFTASEEPPCIIAVLCELHDGLLVEAKGIKEHYFKPYISKLFDRKILKGECLLDLSSFTDNSKAVNKEYEEYVLTVGDFDERIFLGADAEEEIGTPRKFTRDTPLGKLTAQANVEYNLQQHFEKKRSFAPSTPLTGRRYLREKEAVITPVASATQSVSRLQSIVAGLKNAPSDQLINIFESCVRNPVENIMKILKGIGETFCQHYTQSTDEQPGSHIDFAVNRLKLAEILYYKILETVMVQETRRLHGMDMSVLLEQDIFHRSLMACCLEIVLFAYSSPRTFPWIIEVLNLQPFYFYKVIEVVIRSEEGLSRDMVKHLNSIEEQILESLAWSHDSALWEALQVSANKVPTCEEVIFPNNFETGNGGNVQGHLPLMPMSPLMHPRVKEVRTDSGSLRRDMQPLSPISVHERYSSPTAGSAKRRLFGEDPPKEMLMDKIITEGTKLKIAPSSSITAENVSILPGQTLLTMATAPVTGTTGHKVTIPLHGVANDAGEITLIPLSMNTNQESKVKSPVSLTAHSLIGASPKQTNLTKAQEVHSTGINRPKRTGSLALFYRKVYHLASVRLRDLCLKLDVSNELRRKIWTCFEFTLVHCPDLMKDRHLDQLLLCAFYIMAKVTKEERTFQEIMKSYRNQPQANSHVYRSVLLKSIPREVVAYNKNINDDFEMIDCDLEDATKTPDCSSGPVKEERGDLIKFYNTIYVGRVKSFALKYDLANQDHMMDAPPLSPFPHIKQQPGSPRRISQQHSIYISPHKNGSGLTPRSALLYKFNGSPSKSLKDINNMIRQGEQRTKKRVIAIDSDAESPAKRVCQENDDVLLKRLQDVVSERANH

What was measured:
[1] = target: T1, endogenous E3 ubiquitin ligase KLHL42 (human (endogenous in T24)); assay: co-IP; endogenous proteins in T24 cells overexpressing MYC; IP of pRB1 (Fig. 3b) and reversed IP of KLHL42 (Fig. 3c); antibody-conjugated protein A/G beads, IP buffer 50 mM Tris-HCl pH 7.4, 150 mM NaCl, 0.1% NP-40, 4 °C overnight
[2] = target: T2, endogenous pRB1 (retinoblastoma protein RB1) (human (endogenous in T24)); assay: co-IP; ectopically expressed KLHL42 in T24 cells; IP buffer 50 mM Tris-HCl pH 7.4, 150 mM NaCl, 0.1% NP-40, 4 °C overnight (Supplementary Fig. 3a)
[3] = target: T2, endogenous pRB1 (retinoblastoma protein RB1) (human (endogenous in T24)); assay: co-IP; endogenous proteins in T24 cells overexpressing MYC; IP of pRB1 (Fig. 3b) and reversed IP of KLHL42 (Fig. 3c); antibody-conjugated protein A/G beads, IP buffer 50 mM Tris-HCl pH 7.4, 150 mM NaCl, 0.1% NP-40, 4 °C overnight

Molecule | binding [1] | further results
CDK6 (from UniProt Q00534 1-326) | no binding | 
RBL2/p130 (from UniProt Q08999 1-1139) | no binding | 
B1 |  | binding [2]: binds
B2 |  | binding [3]: binds
B3 | binds | 
B4 | no binding | 
